Here are results for 20 molecules from article PMC9911399, “Two distinct binding modes provide the RNA-binding protein RbFox with extraordinary sequence specificity”.

To fix the notation:
T1: RBFOX1 RRM RbFoxmut (Fox-RRM*) (Homo sapiens, UniProt Q9NWB1 109-208, R118D;E147R;N151S;E152T)
T1 sequence: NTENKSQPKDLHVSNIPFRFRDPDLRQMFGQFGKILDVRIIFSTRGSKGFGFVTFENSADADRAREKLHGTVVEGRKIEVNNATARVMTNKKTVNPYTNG

B1: CAGACGG (DNA:RNA)
RNA: GGGAGACCGGAAUUCAGAUUGUCCCAGACGGUUAAAUCCCGUCGUAGCCACCA
DNA 1: CAATCTGAATTCCGGTCTCCC
DNA 2: TGGTGGCTACGACGGGATT
B2: UGCUCGC (DNA:RNA)
RNA: B1 RNA with C25U, A26G, G27C, A28U, G31C
DNA 1: CAATCTGAATTCCGGTCTCCC
DNA 2: TGGTGGCTACGACGGGATT
B3: UGAUUUA (DNA:RNA)
RNA: GGGAGACCGGAAUUCAGAUUGUCCUGAUUUAUUAAAUCCCGUCGUAGCCACCA
DNA 1: CAATCTGAATTCCGGTCTCCC
DNA 2: TGGTGGCTACGACGGGATT
B4: UACCCAU (DNA:RNA)
RNA: B1 RNA with C25U, G27C, A28C, G30A, G31U
DNA 1: CAATCTGAATTCCGGTCTCCC
DNA 2: TGGTGGCTACGACGGGATT
B5: CUCUCCA (DNA:RNA)
RNA: B1 RNA with A26U, G27C, A28U, G30C, G31A
DNA 1: CAATCTGAATTCCGGTCTCCC
DNA 2: TGGTGGCTACGACGGGATT
B6: AUCUCGC (DNA:RNA)
RNA: B1 RNA with C25A, A26U, G27C, A28U, G31C
DNA 1: CAATCTGAATTCCGGTCTCCC
DNA 2: TGGTGGCTACGACGGGATT
B7: AGCUCCG (DNA:RNA)
RNA: B1 RNA with C25A, A26G, G27C, A28U, G30C
DNA 1: CAATCTGAATTCCGGTCTCCC
DNA 2: TGGTGGCTACGACGGGATT
B8: CACAAGU (DNA:RNA)
RNA: B1 RNA with G27C, C29A, G31U
DNA 1: CAATCTGAATTCCGGTCTCCC
DNA 2: TGGTGGCTACGACGGGATT
B9: GGCAGUC (DNA:RNA)
RNA: B3 RNA with U25G, A27C, U28A, U29G, A31C
DNA 1: CAATCTGAATTCCGGTCTCCC
DNA 2: TGGTGGCTACGACGGGATT
B10: UUCUUCU (DNA:RNA)
RNA: B3 RNA with G26U, A27C, U30C, A31U
DNA 1: CAATCTGAATTCCGGTCTCCC
DNA 2: TGGTGGCTACGACGGGATT
B11: CUCGGUA (DNA:RNA)
RNA: B3 RNA with U25C, G26U, A27C, U28G, U29G
DNA 1: CAATCTGAATTCCGGTCTCCC
DNA 2: TGGTGGCTACGACGGGATT
B12: CUGCUCA (DNA:RNA)
RNA: B1 RNA with A26U, A28C, C29U, G30C, G31A
DNA 1: CAATCTGAATTCCGGTCTCCC
DNA 2: TGGTGGCTACGACGGGATT
B13: CAACCCA (DNA:RNA)
RNA: B1 RNA with G27A, A28C, G30C, G31A
DNA 1: CAATCTGAATTCCGGTCTCCC
DNA 2: TGGTGGCTACGACGGGATT
B14: GGUGCGU (DNA:RNA)
RNA: B1 RNA with C25G, A26G, G27U, A28G, G31U
DNA 1: CAATCTGAATTCCGGTCTCCC
DNA 2: TGGTGGCTACGACGGGATT
B15: UUUGACC (DNA:RNA)
RNA: B3 RNA with G26U, A27U, U28G, U29A, U30C, A31C
DNA 1: CAATCTGAATTCCGGTCTCCC
DNA 2: TGGTGGCTACGACGGGATT
B16: UCGAGGA (DNA:RNA)
RNA: B1 RNA with C25U, A26C, C29G, G31A
DNA 1: CAATCTGAATTCCGGTCTCCC
DNA 2: TGGTGGCTACGACGGGATT
B17: UCCGUUG (DNA:RNA)
RNA: B3 RNA with G26C, A27C, U28G, A31G
DNA 1: CAATCTGAATTCCGGTCTCCC
DNA 2: TGGTGGCTACGACGGGATT
B18: ACUGCUC (DNA:RNA)
RNA: B1 RNA with C25A, A26C, G27U, A28G, G30U, G31C
DNA 1: CAATCTGAATTCCGGTCTCCC
DNA 2: TGGTGGCTACGACGGGATT
B19: UUCUACC (DNA:RNA)
RNA: B3 RNA with G26U, A27C, U29A, U30C, A31C
DNA 1: CAATCTGAATTCCGGTCTCCC
DNA 2: TGGTGGCTACGACGGGATT
B20: UUAAGGG (DNA:RNA)
RNA: B1 RNA with C25U, A26U, G27A, C29G
DNA 1: CAATCTGAATTCCGGTCTCCC
DNA 2: TGGTGGCTACGACGGGATT

Numbering of substitutions follows the chain as printed; changes in the protein carry UniProt numbers. The list shows a part of the results.

The assay addresses T1, RBFOX1 RRM RbFoxmut (Fox-RRM*). In words: EMSA; HiTS-Eq, 1 nM pool, 10 min; buffer printed only for the single-RNA assays: 10 mM Tris pH 7.5, 150 mM NaCl, 3.4 mM EDTA, 0.001% NP-40, 30 C. The conditions noted are these: tags: His6 N-terminal (pET28a); label: 5' 32P. In outline: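 These values rest on relative association constants, computed from read-count changes of each RNA species versus the control reaction and normalised to the cognate motif. Reads came from free RNA recovered by 8% native PAGE after purified RbFox RRM (wild type or mutant) at increasing concentrations was equilibrated for 10 min in 50 µL with 1 nM of a 5′-radiolabelled pool with 7 randomized nucleotides and DNA-annealed flanks.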
In the case of B1, the binding signal was 0.07 KA relative to UGCAUGU.
As to B2, the binding signal is 0.123 KA relative to UGCAUGU.
The same measure for B3: 0.093 KA relative to UGCAUGU; for B4: 0.0905 KA relative to UGCAUGU.
The result for B5 reads 0.0848 KA relative to UGCAUGU; that for B6, 0.0993 KA relative to UGCAUGU; that for B7, 0.0767 KA relative to UGCAUGU.
Turning to B8, the binding signal was 0.0957 KA relative to UGCAUGU.
Consider B9, for which the binding signal is 0.113 KA relative to UGCAUGU.
On to B10, for which the binding signal is 0.0691 KA relative to UGCAUGU.
As to B11, the binding signal was 0.176 KA relative to UGCAUGU.
The same measure for B12: 0.126 KA relative to UGCAUGU; for B13: 0.0707 KA relative to UGCAUGU; for B14: 0.169 KA relative to UGCAUGU.
For the molecule B15, the binding signal was 0.0511 KA relative to UGCAUGU.
In the case of B16, the binding signal was 0.0746 KA relative to UGCAUGU.
As to B17, the binding signal was 0.13 KA relative to UGCAUGU.
B18: the binding signal was 0.0835 KA relative to UGCAUGU.
Consider B19, for which the binding signal was 0.0936 KA relative to UGCAUGU.
Turning to B20, the binding signal is 0.0651 KA relative to UGCAUGU.
